In the RNAGym collection of RNA variant scans (doi:10.7554/elife.90254):
The source gives no read counts; variants with many changes may rest on few reads.

B1: OR4K15 (parent)
chain: GUUAACGGUCAUAGGCCAUGGAAACUAGGAGCACCAUUUCGCUGCCAGUGAAGAAAUGAACAAAGAAAAUCUGGGCCAGGCAGGCAUCAAAAGAAAUAGUCUUGCGCUCAACCAGAAAGUCUGUAAUCAUUUUAAGGGUA

Variants of: B1
Assay: self-cleavage, relative activity (ratio to wild type); higher = more cleavage; in vitro, sequencing; the parent is a self-cleaving ribozyme

Variant | self-cleavage
GUUAACGGUCAUAGGCCAUGGAAACUAGGAGCACCAUUUCGCUGCCAGUGAAGAAAUGAACAAAGAAUACCUGGGCCAGGCAGGCAUCAAAAGAAAUAGUCUUGCGCUCAACCAGGAGGUCUGUAAUCAUUUUAAGGGUA [A68U U70C A116G A118G] | 1.88
GUUAACGGUCAUAGGCCAUGGAAACUAGGAGCACCAUUUCGCUGCCAGUGAAGAAAUGAACAAAGAAAGUCGGGGCCAGGCAGGCAUCAAAAGAAAUAGUCUUGUGCUCAACCAGAAAGUCUGUAAUCAUUUUAAGGGUA [A69G U72G C105U] | 0.1
GUUAACGGUCAUAGGCCAUGGAAACUAGGAGCACCAUUUCGCUGCCAGUGAAGAAAUGAACAAAGAAAUUCUGGGCCAGGCAGGCAUCAAGAGAGAUAGUCUUGCGCUCGACCAGAAAGUCUGUAAUCAUUUUAAGGGUA [A69U A91G A95G A110G] | 0.33
GUUAACGGUCAUAGGCCAUGGAAACUAGGAGCACCAUUUCGCUGCCAGUGAAGAAAUGAACAAAGAAAGUCCGGGCCAGACAGGCAUCAAAAGAAAUAGUCUUGCGCUCAACCAGAAAGUCUGUAAUCAUUUUAAGGGUA [A69G U72C G80A] | 0.18
GUUAACGGUCAUAGGCCAUGGAAACUAGGAGCACCAUUUCGCUGCCAGUGAAGAAAUGAACAAAGAAAGUCUGGGCCAGGCAGGCAUCAAAAGAAAUAGUCUUGCGCUCAACCAGAAUGCCUGUAAUCAUUUUAAGGGUA [A69G A118U U120C] | 0.33
GUUAACGGUCAUAGGCCAUGGAAACUAGGAGCACCAUUUCGCUGCCAGUGAAGAAAUGAACAAAGAAAGACUGGGCCAGGCAGGCAUCAAAAGAAAUAGUCUUGCGCUCAACCAGAAAGUCUGUAACCAUUUUAAGGGUA [A69G U70A U127C] | 0.16
GUUAACGGUCAUAGGCCAUGGAAACUAGGAGCACCAUUUCGCUGCCAGUGAAGAAAUGAACAAAGAAAGUCUGGGCCAGGCAGGCAUCAAAAGAAAUAGCCUGGCGCUCAACCAGAAGGUCUGUAACCAUUUUAAGGGUA [A69G U100C U103G A118G U127C] | 0.01
GUUAACGGUCAUAGGCCAUGGAAACUAGGAGCACCAUUUCGCUGCCAGUGAAGAAAUGAACAAAGAAACUCUGGGCCAGGCAGGCAUCAAAAGAAUUAGUCUUGCGCUCGACCAGAAAGUCUGUAAUCAUUUUAAGGGUA [A69C A96U A110G] | 0.12
GUUAACGGUCAUAGGCCAUGGAAACUAGGAGCACCAUUUCGCUGCCAGUGAAGAAAUGAACAAAGAAAGUCUGGGCCAGGCAGGCACCAAAAGAAAUAGUCUUGCGCUCGACCAGAUAGUCUGUAGUCAUUUUAAGGGUA [A69G U87C A110G A117U A126G] | 0.02
GUUAACGGUCAUAGGCCAUGGAAACUAGGAGCACCAUUUCGCUGCCAGUGAAGAAAUGAACAAAGAAAGUCUGGGCCAGGCAGGCAUCAAAAGAAAUAGUCUUGCGCUCAACCAGAAGGUCUGUAAUCAUUUUAAGGGUU [A69G A118G A140U] | 1.47
GUUAACGGUCAUAGGCCAUGGAAACUAGGAGCACCAUUUCGCUGCCAGUGAAGAAAUGAACAAAGAAAGUCUGGGCCAGGCAGGCAUCAAAAGAGAUAGUCUUGCGCUCGACCAGAAAGUCCGUAAUCAUUUUAAGGGUA [A69G A95G A110G U122C] | 0.14
GUUAACGGUCAUAGGCCAUGGAAACUAGGAGCACCAUUUCGCUGCCAGUGAAGAAAUGAACAAAGAAAGUCUGGGCCAGGCAGGCAUCAAAAGAAACAGUCUUGCGCUCAACCAGAAAGUCUGUAAUCAUUUUAAGGGCA [A69G U97C U139C] | 1.17
GUUAACGGUCAUAGGCCAUGGAAACUAGGAGCACCAUUUCGCUGCCAGUGAAGAAAUGAACAAAGAAAGUCUGGGCCAGGCAGGCAUCAAAAGAAAUAGUCUUGCGCCCAACCAGAAAGUCUGUAAUCAUUUUAGGGGUA [A69G U108C A135G] | 0.01
GUUAACGGUCAUAGGCCAUGGAAACUAGGAGCACCAUUUCGCUGCCAGUGAAGAAAUGAACAAAGAAAGUCUGGGCCAGGCAGGCAUCAAAAGAAAUAGUCUUGCGCUCAACCAGAAAGACUGUAAUCAUUUUAAGGGCA [A69G U120A U139C] | 1.06
GUUAACGGUCAUAGGCCAUGGAAACUAGGAGCACCAUUUCGCUGCCAGUGAAGAAAUGAACAAAGAAAGUCUGGGCCAGGCAGGCACCAAAAGAAAUAGUCUUGCGCUCAACCAGAAAGCCUGUAAUCACUUUAAGGGUA [A69G U87C U120C U130C] | 0.09
GUUAACGGUCAUAGGCCAUGGAAACUAGGAGCACCAUUUCGCUGCCAGUGAAGAAAUGAACAAAGAAUACCUGGGCCAGGCAGGCAUCAAGAGAAAUAGUCUUGCGCUCAACCAGAAAGUCUGUAAUCAUUUUAAGGGUA [A68U U70C A91G] | 0.45
GUUAACGGUCAUAGGCCAUGGAAACUAGGAGCACCAUUUCGCUGCCAGUGAAGAAAUGAACAAAGAAAUUCUGGGCCAGGCAGGCAUCAAGAGAAGUAGUCUUGCGCUCAACCAGAGAGUCUGUAAUCAUUUUAAGGGUA [A69U A91G A96G A117G] | 2.02
GUUAACGGUCAUAGGCCAUGGAAACUAGGAGCACCAUUUCGCUGCCAGUGAAGAAAUGAACAAAGAAACUCUGGGCCAGGCAGGCAUCAAAAGAAAUAGUCAUACGCUCAACCAGAAAGUCUGUAAUCAUUUUAAGGGUA [A69C U102A G104A] | 0.01
GUUAACGGUCAUAGGCCAUGGAAACUAGGAGCACCAUUUCGCUGCCAGUGAAGAAAUGAACAAAGAAAGUCUGGGCCAGGCAGGCAUCAGAAGAGAUAGUCUUGCGCUCAACCAGAAAGUCUGUAAUCAUUUUAAGGGUA [A69G A90G A95G] | 0.79
GUUAACGGUCAUAGGCCAUGGAAACUAGGAGCACCAUUUCGCUGCCAGUGAAGAAAUGAACAAAGAAAGUCUGGGCCAGGCAGGCAUCAUAAGAAAUAGUCUUGCGCUCAACCAGGAAGUCUGUAAUCAUCUUAAGGGUA [A69G A90U A116G U131C] | 0.37
GUUAACGGUCAUAGGCCAUGGAAACUAGGAGCACCAUUUCGCUGCCAGUGAAGAAAUGAACAAAGAAUAUCUGGGCCAGGCAGACAUCAAAAGAAAUAGUCUUGCGCUCAACCGGAAGGUCUGUAAUCAUUUUAAGGGUA [A68U G84A A114G A118G] | 0.27

Variant | self-cleavage
GUUAACGGUCAUAGGCCAUGGAAACUAGGAGCACCAUUUCGCUGCCAGUGAAGAAAUGAACAAAGAAUAUCCGGGCCAGGCAGGCAUCAAUAGAAGUAGUCUUGCGCUCAACCAGAAAGUCUGUAAUUAAUUUAAGGGUA [A68U U72C A91U A96G C128U U130A] | 0.17
GUUAACGGUCAUAGGCCAUGGAAACUAGGAGCACCAUUUCGCUGCCAGUGAAGAAAUGAACAAAGAAUAUCUGGGCCAGGCAGGCAUCAAAAGAAAUAGUCUUGCGCUCAACCAGAAAGUCUGUAAACGUUUUAAGGGUA [A68U U127A A129G] | 1.31
GUUAACGGUCAUAGGCCAUGGAAACUAGGAGCACCAUUUCGCUGCCAGUGAAGAAAUGAACAAAGAAACUCUGGGCCAGGCAGGCAUCAAAAGAAAUAGUCUUGCGCUCAACCAGAAAGUCUGUAGUCACUUUAAGGGUA [A69C A126G U130C] | 0.67
GUUAACGGUCAUAGGCCAUGGAAACUAGGAGCACCAUUUCGCUGCCAGUGAAGAAAUGAACAAAGAAAGUCUGGGCCAGGCAGGCAUCAAAAGAAUUAGUCUUGCGCUCGACCAGAAAGUCUGUAAUCAUUUUAAGGGUA [A69G A96U A110G] | 0.09
GUUAACGGUCAUAGGCCAUGGAAACUAGGAGCACCAUUUCGCUGCCAGUGAAGAAAUGAACAAAGAAAGUCUGGGCCAGGCAGGCAUCAAAAGGGGGAGCCUUGCGCUCAACCAGAAAGUCUGUAAUCAUUUUAAGGGUA [A69G A94G A95G A96G U97G U100C] | 0.75
GUUAACGGUCAUAGGCCAUGGAAACUAGGAGCACCAUUUCGCUGCCAGUGAAGAAAUGAACAAAGAAAGUCCGGGCCAGGCAGGCAUCAAAAGAAAUAGCCUUGCGCUCAACCAGAAAGUCAGUCAUCAUUUUAAGGGUA [A69G U72C U100C U122A A125C] | 0.11
GUUAACGGUCAUAGGCCAUGGAAACUAGGAGCACCAUUUCGCUGCCAGUGAAGAAAUGAACAAAGAAAUUCUGGGCCAGGCAGGCAUCAAAGGAAAUAGUCUUGCGCUCAACCAAAAAGUCUGUAAUCAUUUUAAGGGUA [A69U A92G G115A] | 0.09
GUUAACGGUCAUAGGCCAUGGAAACUAGGAGCACCAUUUCGCUGCCAGUGAAGAAAUGAACAAAGAAAGUCUGGGCCAGGCAGGCAUCAAAAGAAAUAGUCUUGCGCCCAACCAGGAAGUCUGUAAUCAUUUUAAGGGUA [A69G U108C A116G] | 0.01
GUUAACGGUCAUAGGCCAUGGAAACUAGGAGCACCAUUUCGCUGCCAGUGAAGAAAUGAACAAAGAAAGUCUGGGCCAGGCAGGCAUCAAAAGAAAUAGUCUCGCGCUCAACCAGAAAGUCUGUAAUCACUUUAAGGGUA [A69G U103C U130C] | 0.17
GUUAACGGUCAUAGGCCAUGGAAACUAGGAGCACCAUUUCGCUGCCAGUGAAGAAAUGAACAAAGAAUACCUGGGCCAGGCAGGCAUCAAAAGAAAUACUCUUGCGCUCAACCAGAAGGUCUGUAAUCAUUCUAAGGGUA [A68U U70C G99C A118G U132C] | 0
GUUAACGGUCAUAGGCCAUGGAAACUAGGAGCACCAUUUCGCUGCCAGUGAAGAAAUGAACAAAGAAAGUCUGGGCCAGGCAGGCAUCAAAAGAAAUAGUCUUGCGCUCAGCCAGGGAGUCUGUAAUCAUUUUAAGGGUA [A69G A111G A116G A117G] | 0.01
GUUAACGGUCAUAGGCCAUGGAAACUAGGAGCACCAUUUCGCUGCCAGUGAAGAAAUGAACAAAGAAAGUCUGGGCCAGGCAGGCAUCAAAAGAAAUAGCCUUGCGCUCAACCAGGAAGUCUGUAAUCAUUUUAAGGGUA [A69G U100C A116G] | 2.06
GUUAACGGUCAUAGGCCAUGGAAACUAGGAGCACCAUUUCGCUGCCAGUGAAGAAAUGAACAAAGAAUAUCUAGGCCAGGCAGGCAUCAAAAGAAAUAGUCUUGCGCUCAACCAGAAGGUCCGUAAUCAUUUUAAGGGUA [A68U G73A A118G U122C] | 0.07
GUUAACGGUCAUAGGCCAUGGAAACUAGGAGCACCAUUUCGCUGCCAGUGAAGAAAUGAACAAAGAAAGUCUGGGCCUGGCAGGCAUCAAAAGAAAUAGUCUUGUGCUCAACCAGAAAGUCUGUAAUCAUUUUAGGGGUA [A69G A78U C105U A135G] | 0.02
GUUAACGGUCAUAGGCCAUGGAAACUAGGAGCACCAUUUCGCUGCCAGUGAAGAAAUGAACAAAGAAAUUCUGGGCCAGGCAGGCAUCAAAAGGAAUAGUCUUGCGCUCAGCCAGAAAGUCUGUAAUCAUUUUAAGGGUA [A69U A94G A111G] | 0.02
GUUAACGGUCAUAGGCCAUGGAAACUAGGAGCACCAUUUCGCUGCCAGUGAAGAAAUGAACAAAGAAAGUCUGGGCCAGGCAGGCAUCAAAUGGGAUAGUCUUGCGCUCAACCAGAAAGUCUGUAAUCAUUUUAAGGGUA [A69G A92U A94G A95G] | 1.49
GUUAACGGUCAUAGGCCAUGGAAACUAGGAGCACCAUUUCGCUGCCAGUGAAGAAAUGAACAAAGAAAUUCUGGGCCGGGCAGGCAUCAAAAGAAAUAGUCUUGCGCUCAACCAGAAAGUCCGUAAUCAUUUUAAGGGUA [A69U A78G U122C] | 0.15
GUUAACGGUCAUAGGCCAUGGAAACUAGGAGCACCAUUUCGCUGCCAGUGAAGAAAUGAACAAAGAAAGUCUGGGCCAGGCAGGCUUCAAAGGAAAUAGUCUUGCGCUCACCCAGAGAGUCUGUAAUCAUUUUAAGGGUA [A69G A86U A92G A111C A117G] | 0.04
GUUAACGGUCAUAGGCCAUGGAAACUAGGAGCACCAUUUCGCUGCCAGUGAAGAAAUGAACAAAGAAAGUCUGGGCCAGGCAGGCAUCAAGAGAAGUAGUCUUGCGCUCAACCAGAAAGUCUGUAAUCAUUUUAAGGGUA [A69G A91G A96G] | 1.18
GUUAACGGUCAUAGGCCAUGGAAACUAGGAGCACCAUUUCGCUGCCAGUGAAGAAAUGAACAAAGAAAUUCUGGGCCAGGCAGGCAUCAAAAGAAGUAGUCUUGCGCCCAACCAGAAAGUCUGUAAUCAUUUUAAGGGUA [A69U A96G U108C] | 0.02
